# Experimental data reported in PubChem BioAssay AID686979 (National Center for Advancing Translational Sciences (NCATS), 2013).
# Screen size: about 420,000 compounds; about 50,000 (12%) were called active. Inconclusive results, whose numbers are uncertain, are shown with a selection of clear calls. Calls follow the shape of the dose curve; as a rule, active = well fitted inhibition curve with a large enough effect; inconclusive = small, poorly fitted or top-dose-only effect; inactive = flat fitted curve, though single readings scatter. No potency is given beside an inconclusive call; the fits are too rough.
# Experiment: qHTS for Inhibitors of human tyrosyl-DNA phosphodiesterase 1 (TDP1): qHTS in cells in presence of CPT; also: nearly all actives have a fitted effect of over 55% in size
# Details: chicken DT40 Tdp1-/-;hTDP1 cells + 20 nM CPT, ATP luminescence, 48 h; activity change, negative = growth inhibition: at 46.2 µM (top of the series)
# In short: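 Chicken DT40 Tdp1-/- cells stably complemented with human TDP1 were seeded at 400 cells/well in medium containing 20 nM camptothecin, exposed to pin-transferred compounds, and grown at 37 °C for at least 48 hr. Viability was read as ATP luminescence.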
# % is scaled to controls: 0 for no effect and ±100 for the full control effect; potency is read from the fitted curve at half-maximal effect; tags tell the direction and shape of the fitted curve.
SMILES,Potency,"activity change, negative = growth inhibition"
CC(=O)c1ccc(-c2ccc([C@H]3[C@@H]4C=CCC[C@@]4(C)C(=O)N3Cc3ccccc3)c(F)c2)cc1,active: 20.6 µM,–
O=C(NCC(c1cccs1)N1CCOCC1)c1cc(Cl)ccc1[N+](=O)[O-] (stereo not drawn),"inconclusive [inhibitor, partial curve]",–
Cc1nc2ccccc2n1CC(=O)NC1CCCCCC1,active: 11.6 µM,–
CCc1ccc2oc(-c3cc(N)ccc3O)nc2c1,"inconclusive [inhibitor, single point]",–
C=C(CCO)C1=CCN(S(=O)(=O)C(C)(C)C)[C@H]1CCO,inactive,–
CC(C)CN1CCc2nc(N3CCN(c4ncccn4)CC3)ncc2C1,"inconclusive [inhibitor, single point]",–
COc1cccc(C(=O)NCC(c2ccc(N(C)C)cc2)N2CCCC2)c1OC (stereo not drawn),active: 11.6 µM,–
CCOc1cc(Cl)c(NC(=O)CC)cc1OCC,inactive,–
Cc1ccc(N=C2NC(=O)C(CC(=O)NCc3ccccc3)S2)cc1C (stereo not drawn),inactive,–
CCc1cccc(CC)c1-n1c(SCC(=O)N2CCc3ccccc3C2)nnc1-c1cccnc1,active: 18.4 µM,–
Cc1onc(-c2c(F)cccc2Cl)c1C(=O)N1CCc2ccccc2C1,"inconclusive [inhibitor, single point]",–
CCOC(=O)c1c(C)[nH]c2cc(Br)c(O)cc12,–,inconclusive: -32.1% [inhibitor]
CC(C)OCCCNC(=O)c1ccc(-n2c(-c3ccccc3)cc3c2CCCC3)cc1,"inconclusive [inhibitor, single point]",–
COc1ccc([N+](=O)[O-])cc1NC(=O)c1cn(-c2ccc(C)c(C)c2)c(=O)c2ccccc12,inactive,–
CN(C(=O)c1ccc(NC(=O)Cc2cccc(NC(=O)C3CCCN(S(=O)(=O)c4cccc([N+](=O)[O-])c4)C3)c2)cc1)C1CC1 (stereo not drawn),–,inconclusive: -31.1% [inhibitor]
CCOc1ccc(-c2nnc(SCC(=O)NCCC(C)C)nc2-c2ccc(OCC)c(OC)c2)cc1OC,active: 14.6 µM,–
COc1ccc(-c2oc3ncnc(NCCCN(C)C)c3c2-c2ccc(OC)cc2)cc1,"inconclusive [inhibitor, single point]",–
COc1cccc(C(=O)C2CCCN(Cc3cccn3-c3ccccn3)C2)c1 (stereo not drawn),"inconclusive [inhibitor, partial curve, poor fit]",–
O=C(c1ccco1)N1CCN(C(=O)c2cc3sccc3n2Cc2ccccc2)CC1,"inconclusive [inhibitor, single point]",–
COc1ccc(C(=O)NCC2OCCc3ccccc32)cc1OC (stereo not drawn),inactive,–
O=C(CSc1nnc(Cc2ccccc2)o1)Nc1ccc2c(c1)OCO2,inactive,–
CCOc1ccc(OCC)c(NC(=O)C2CCN(S(=O)(=O)c3ccc(Br)s3)CC2)c1,inactive,–
Cc1nnc(SCC(=O)NNC(=O)COc2ccc(Br)cc2)n1C,inactive,–
Cc1cccc(C)c1NC(=O)C1CCCN1C(=O)NCc1ccccc1 (stereo not drawn),inactive,–
CSc1ccc(S(=O)(=O)NCCSC(C)(C)C)cc1,–,inconclusive: -33.4% [inhibitor]

SMILES,Potency,"activity change, negative = growth inhibition"
CCOc1ccc(N2C(=O)C3=C(C(c4ccc(Cl)cc4)=NCCN3)C2c2cccnc2)cc1 (stereo not drawn),"inconclusive [inhibitor, single point]",–
CN(c1ccccc1)S(=O)(=O)c1ccc(Cl)c(C(=O)NCc2ccccc2CN2CCCC2)c1,"inconclusive [inhibitor, single point]",–
CC1CC(Nc2ccccc2)c2ccccc2N1C(=O)c1ccncc1 (stereo not drawn),active: 9.2 µM,–
CN1CCN(CCOc2ccc(Cl)c(Cl)c2)CC1,active: 16.4 µM,–
Cc1ccc(N2CCN(C(=O)Cc3c(C(=O)O)c(C)cn3C)CC2)c(C)c1,"inconclusive [inhibitor, partial curve]",–
CCOc1ccccc1CNC(=O)c1ccc(Sc2ccc(Cl)cc2)c(NC(C)=O)c1,"inconclusive [inhibitor, single point]",–
Cn1nc(-c2ccccc2)c(-c2nc(-c3ccc(Cl)cc3)no2)c1Cl,"inconclusive [inhibitor, partial curve, poor fit]",–
O=C(Cc1cccs1)N1CCN(c2ccc([N+](=O)[O-])cc2)CC1,"inconclusive [inhibitor, partial curve, poor fit]",–
COc1c(C)cccc1C(=O)NC(=S)Nc1ccccc1N1CCCC1,"inconclusive [inhibitor, single point]",–
CCn1c(SCC(=O)Nc2ccc(OC)c(OC)c2)nnc1-c1c[nH]c2ccccc12,"inconclusive [inhibitor, single point]",–
COc1ccccc1NC(=S)N1CCC(NC(=O)NC23CC4CC(CC(C4)C2)C3)CC1,"inconclusive [inhibitor, single point]",–
COCCN(Cc1nc2ccccc2c(=O)[nH]1)C(=O)COc1c(C)cc(Cl)cc1C,"inconclusive [inhibitor, single point]",–
Cc1cccc(NC(=O)N2CCc3c(sc4c3CCCC4)C2c2ccc(F)cc2)c1 (stereo not drawn),"inconclusive [inhibitor, single point]",–
C=CCn1c(COc2ccccc2)nnc1SCC(=O)C(C)(C)C,–,inconclusive: -32.9% [inhibitor]
Cc1ccc(S(=O)(=O)N2CCN(c3cc(-c4cccs4)nc4ccccc34)CC2)cc1,inactive,–
O=C(c1cc(S(=O)(=O)N2CCOCC2)ccc1F)N(CCc1ccccc1)Cc1ccccc1,"inconclusive [inhibitor, single point]",–
CCCn1ccnc1SCC(=O)Nc1c(C)n(C)n(-c2ccccc2)c1=O,inactive,–
C=CCn1c(C)cc(C(=O)COc2nncc3ccccc23)c1C,active: 8.2 µM,–
O=c1c2c3c(sc2ncn1/N=C/c1ccc(Br)o1)CCCC3,inactive,–
Cc1cc(C(=O)N2CCN(C(c3ccccc3)c3ccccc3)CC2)no1,"inconclusive [inhibitor, single point]",–
O=C1c2ccccc2C2=Nc3ccccc3SC(c3ccc(Cl)cc3)C12 (stereo not drawn),"inconclusive [inhibitor, single point]",–
COc1cnc(-c2ccccn2)nc1Oc1ccc(C(C)(C)C)cc1,active: 3.66 µM,–
O=C(COC(=O)Cc1ccccc1[N+](=O)[O-])NCc1ccccc1Cl,inactive,–
Cc1ccc(C)c(N(C)C(=O)c2coc(=O)c3ccccc23)c1,"inconclusive [inhibitor, single point]",–
O=C1c2ccccc2NC(c2ccc(F)cc2)N1Cc1ccccc1 (stereo not drawn),"inconclusive [inhibitor, single point]",–

SMILES,Potency,"activity change, negative = growth inhibition"
Cn1c(=O)cc(OCCCC(=O)N2CCCCC2)c2ccccc21,"inconclusive [inhibitor, partial curve]",–
CCOc1ccc(NC(=O)CN(C)CC(=O)Nc2ccc(F)c(F)c2F)cc1OCC,inactive,–
COc1ccc(CN(C)CC(=O)NC(=O)NCc2ccccc2)c(OC)c1,–,inconclusive: -34.9% [inhibitor]
CCOC(=O)c1c(-c2ccc(F)cc2)csc1NC(=O)C1CCCO1 (stereo not drawn),inactive,–
Cc1ccc2[nH]c(=O)c(C(c3nnnn3CC3CCCO3)N3CCc4ccccc4C3)cc2c1 (stereo not drawn),"inconclusive [inhibitor, single point]",–
O=C(Oc1ccc(C(=S)N2CCOCC2)cc1)c1ccc([N+](=O)[O-])cc1,inactive,–
C=CCNC(=O)COC(=O)c1ccccc1C(=O)N(C)C1CCCCC1,inactive,–
Cc1ccc(S(=O)(=O)Nc2ccc(-c3nnc(SCc4ccccc4Cl)o3)cc2)cc1,"inconclusive [inhibitor, single point]",–
CC(C)C(=O)N1CCN(S(=O)(=O)c2ccc3ccccc3c2)CC1,inactive,–
CCOC(=O)C1(C)CCCN1C(=O)c1ccc2ccccc2c1 (stereo not drawn),"inconclusive [inhibitor, single point]",–
Nc1cccnc1Sc1cc(Cl)c(Cl)cc1Cl,inactive,–
Cn1c(=NN=Cc2ccccc2OCCO)sc2ccccc21,"inconclusive [inhibitor, single point]",–
Cc1ccc2nc(-c3cccc(S(=O)(=O)N4CCCC4)c3)cn2c1,inactive,–
COc1ccc(C(C#N)=C2C=C(Cl)C(=NO)C=C2Cl)cc1,active: 3.26 µM,–
CCOC(=O)C1=C(C)NC(=O)NC1c1cccs1 (stereo not drawn),inactive,–
COc1cccc(CN(C)C[C@H]2OCc3cnnn3CCCC(=O)N([C@@H](C)CO)C[C@@H]2C)c1,inactive,–
CCOC(=O)c1ccc(NC(=O)c2ccc3c(c2)NC(=O)c2ccccc2S3)cc1,inactive,–
O=C(c1cc2ccccc2o1)N1CCN(Cc2ccc3c(c2)OCO3)CC1,inactive,–
COC(=O)[C@]12CCCCC=C1N(Cc1ccc3c(c1)OCO3)C(=O)[C@H](CC(=O)N1CCN(C(=O)c3ccco3)CC1)C2,"inconclusive [inhibitor, single point]",–
Cc1nc2ccccc2c(=O)n1NC(=O)c1ccccc1,inactive,–
Cc1cccc(-c2ccc3[nH]c4c(c3c2)CCN2C[C@H]3[C@H](C)ON(C)[C@H]3C[C@@H]42)c1,"inconclusive [inhibitor, single point]",–
N#C/C(=C\c1cn(-c2ccccc2)nc1-c1cccnc1)c1nnc2n1CCCCC2,"inconclusive [inhibitor, partial curve]",–
O=C1NC(Cc2ccccc2)c2nc3ccc(Cl)cc3c(=O)n2-c2ncccc21 (stereo not drawn),"inconclusive [inhibitor, single point]",–
